29 compounds from the antibiotic and cytotoxicity screens of Wong et al. (2023) can be followed below.

The list shows a part of the results.

This experiment deals with S. aureus RN4220. The experiment can be described thus: growth inhibition call (relative growth <= 0.2). Conditions: 50 µM.
For the compound `C[C@@H]1CCCCO[C@H](CN(C)C(=O)Nc2ccc3c(c2)OCO3)[C@@H](C)CN([C@@H](C)CO)C(=O)c2cc(NC(=O)CCC(F)(F)F)ccc2O1`, the growth inhibition call is “inactive”.

Take `C[C@H](CO)N1C[C@H](C)[C@@H](CN(C)Cc2ccc(Oc3ccccc3)cc2)Oc2ccc(NC(=O)Cc3cn(C)c4ccccc34)cc2C1=O`: the growth inhibition call is “inactive”.

Regarding `O=C(N[C@@H]1CC[C@@H](CC(=O)N2CCOCC2)O[C@@H]1CO)c1ccccn1`, the growth inhibition call was “inactive”.

In the case of `COc1ccc(S(=O)(=O)N(C)C[C@@H]2OCCCC[C@@H](C)Oc3ccc(NC(=O)C4CCCCC4)cc3C(=O)N([C@@H](C)CO)C[C@@H]2C)cc1`, the growth inhibition call was “inactive”.

Consider `CC(=O)OC1CC2CC(OC(C)=O)C3(C)C(CCC4(C)C(c5ccoc5)OC(OC(C)=O)C5OC543)C2(C)C(OC(C)=O)C1` (centres undefined), for which the growth inhibition call is “inactive”.

For the compound `COc1ccc(C#Cc2ccc3c(c2)[C@]2(C(=O)N3)[C@H](C(=O)Nc3nc4ccccc4s3)[C@H]3C(=O)O[C@H](c4ccccc4)[C@H](c4ccccc4)N3[C@@H]2c2ccccc2OCCO)cc1`, the growth inhibition call is “inactive”.

In the case of `C[C@H](CO)N1C[C@H](C)[C@H](CN(C)Cc2ccc(C(=O)Nc3ccccc3N)cc2)Oc2c(NC(=O)Nc3ccc(C(F)(F)F)cc3)cccc2C1=O`, the growth inhibition call is “inactive”.

In the case of `C[C@H]1CN([C@@H](C)CO)C(=O)c2cc(NC(=O)Cn3cnnn3)ccc2O[C@@H]1CN(C)C(=O)Nc1ccc2c(c1)OCO2`, the growth inhibition call is “inactive”.

In the case of `C[C@@H]1CN([C@H](C)CO)C(=O)Cc2cc(NS(C)(=O)=O)ccc2O[C@@H]1CN(C)S(=O)(=O)c1cccs1`, the growth inhibition call is “inactive”.

Consider `Cc1ccc(S(=O)(=O)Nc2ccc3c(c2)C(=O)N([C@H](C)CO)C[C@H](C)[C@H](CN(C)C(=O)Nc2cccc4ccccc24)O3)cc1`, for which the growth inhibition call was “inactive”.

As to `Cc1ccc(S(=O)(=O)N(C)C[C@@H]2Oc3cc(C#Cc4ccccc4)ccc3S(=O)(=O)N([C@@H](C)CO)C[C@H]2C)cc1`, the growth inhibition call was “inactive”.

On to `C=CC[C@H](CC(=O)N(CCO)Cc1ccccc1)C(=O)N[C@@H](COC(=O)[C@@H](CC=C)Cc1ccc(F)cc1)Cc1c[nH]c2ccccc12`, for which the growth inhibition call was “inactive”.

In the case of `O=C1OCC=C[C@H]2O[C@@]34C=CCN(Cn5nnc6ccccc65)C(=O)[C@H]3N(CCO)C(=O)[C@@H]4[C@@H]12`, the growth inhibition call is “inactive”.

As to `CNC[C@H](O)c1ccc(O)c(O)c1`, the growth inhibition call was “inactive”.

`CN(C)C(=O)N1CC2(CCN(S(=O)(=O)N(C)C)CC2)[C@]2(CCN(C)C2=O)C1`: the growth inhibition call is “inactive”.

Take `C[C@@H]1CN([C@H](C)CO)C(=O)c2cccc(NC(=O)Nc3cccc4ccccc34)c2O[C@H]1CN(C)S(=O)(=O)c1ccc(Cl)cc1`: the growth inhibition call is “inactive”.

In the case of `COCC(=O)N(C)C[C@@H]1Oc2cc(C#C[C@H](C)O)ccc2S(=O)(=O)N([C@@H](C)CO)C[C@H]1C`, the growth inhibition call is “inactive”.

With `C[C@H]1CCCCO[C@H](CN(C)S(=O)(=O)c2ccc(Cl)cc2)[C@@H](C)CN([C@@H](C)CO)C(=O)c2cc(NS(=O)(=O)c3ccc(Cl)cc3)ccc2O1`, the growth inhibition call is “inactive”.

For `CC1=C(C(=O)O)N2C(=O)[C@@H](NC(=O)[C@H](N)C3=CCC=CC3)[C@H]2SC1`, the growth inhibition call was “inactive”.

Consider `C[C@@H]1CN([C@H](C)CO)S(=O)(=O)c2ccc(-c3ccncc3)cc2O[C@@H]1CN(C)S(=O)(=O)c1ccccc1F`, for which the growth inhibition call is “inactive”.

In the case of `Cc1ccc(S(=O)(=O)N(C)C[C@@H]2OCCCC[C@H](C)Oc3ccc(NC(=O)Nc4cccc5ccccc45)cc3C(=O)N([C@H](C)CO)C[C@H]2C)cc1`, the growth inhibition call is “inactive”.

Consider `O=C1OC(CN2CCOCC2)CN1N=Cc1ccc([N+](=O)[O-])o1` (centres undefined), for which the growth inhibition call is “active”.

As for `O=C(CN1CCOCC1)NCC[C@H]1CC[C@@H](NC(=O)c2ccc3c(c2)OCO3)[C@H](CO)O1`, the growth inhibition call is “inactive”.

On to `C[C@@H]1CN([C@@H](C)CO)C(=O)c2cc(NC(=O)Nc3ccccc3)ccc2O[C@@H]1CN(C)Cc1ccc(C(F)(F)F)cc1`, for which the growth inhibition call was “inactive”.

`O=C(CNC(=O)c1ccc(Cl)cc1)NO`: the growth inhibition call is “inactive”.

With `CO[C@@H](C(=O)N(C)C[C@@H]1OCc2ccccc2-c2c(n(C)c3ccccc23)C(=O)N([C@H](C)CO)C[C@H]1C)c1ccccc1`, the growth inhibition call was “inactive”.

Turning to `COc1ccc(CCNC(=O)[C@@]2(Sc3ccc(C)cc3)CC(=O)N(C(C)C)[C@@H]2c2ccc(CO)cc2)cc1`, the growth inhibition call is “inactive”.

Consider `CO[C@@H]1CN(C)C(=O)c2cc(NS(C)(=O)=O)ccc2OC[C@H](C)N(C(=O)C2CCCCC2)C[C@@H]1C`, for which the growth inhibition call was “inactive”.

On to `C[C@H](CO)N1C[C@H](C)[C@H](CN(C)Cc2ccccc2)Oc2c(NC(=O)c3ccc(-c4nccs4)cc3)cccc2C1=O`, for which the growth inhibition call is “inactive”.
